Data taken from PMC5892938.
This is one part of the list. At the low end of the ranking the order means little.

Target: GST-SBP-SLBP (stem-loop binding protein) (UniProt Q14493)
Assay: targeted RNA Bind-n-Seq;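 note: DESeq read counts versus GST-SBP nonspecific binding control pulldown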
Conditions: RBNS binding buffer: 25 mM Tris pH 7.5, 150 mM KCl, 3 mM MgCl2, 0.1% Tween, 0.5 mg/mL BSA, 1 mM DTT; 27 nM protein, 750 pM RNA pool; temperature not stated; high values mean tight binding

Sequence | binding signal (log2 fold change)
GGUCACGUCUCAAUCAACUCAACUCCCAGGGAAACCCCUGGCAUUUUCAACAGCUCGCAGUCAAG | 0.00921
GGUCACGUCUCAAUCAACUCUCAAGAGGGGGGGAAAACCCCUUUGCCCUCACAAUCAACAGCUCGCAGUCAAG | -0.0652
GGUCACGUCUCAAUCAACUCAUUCCCCAGGGAAAUCCCUGGUAAUUUCAACAGCUCGCAGUCAAG | 0.228
GGUCACGUCUCAAUCAACUCAUUUUCAGGAGUUUCCUCCUGCUAAUUCAACAGCUCGCAGUCAAG | -0.00105
GGUCACGUCUCAAUCAACUCCUCGGAGGGGGGGAAAACCCCUUUACCCUCAUAUUCAACAGCUCGCAGUCAAG | 0.374
GGUCACGUCUCAAUCAACUCUAUUCCCAGGGAAAGCCCUGGUAUAUUCAACAGCUCGCAGUCAAG | -0.0186
GGUCACGUCUCAAUCAACUCUUUAGAGGGGGGGAAAACCCCUUUGCCCUCCAAUUCAACAGCUCGCAGUCAAG | -0.457
GGUCACGUCUCAAUCAACUCAGUUCCAGGAGUUUACUCCUGUUUUUUCAACAGCUCGCAGUCAAG | -0.322
GGUCACGUCUCAAUCAACUCUAUCCCCAGGGAAACCCCUGGUAAUUUCAACAGCUCGCAGUCAAG | -0.223
GGUCACGUCUCAAUCAACUCUACUUCAGGAGUUUCCUCCUGUUAAUUCAACAGCUCGCAGUCAAG | 0.0516
GGUCACGUCUCAAUCAACUCUACUUCCAGGGAAACCCCUGGUAUACUCAACAGCUCGCAGUCAAG | 0.362
GGUCACGUCUCAAUCAACUCUUCCCCCAGGGAAAUCCCUGGUUAAUUCAACAGCUCGCAGUCAAG | 0.0614
GGUCACGUCUCAAUCAACUCAUCUCCCAGGGAAAUCCCUGGUUUUCUCAACAGCUCGCAGUCAAG | 0.27
GGUCACGUCUCAAUCAACUCUAAAGAGGGGGGGAAAACCCCUUUGCCCUCCGUAUCAACAGCUCGCAGUCAAG | 0.296
GGUCACGUCUCAAUCAACUCCAAAGAGGGGGGGAAAACCCCUUUGCCCUCGUCAUCAACAGCUCGCAGUCAAG | -0.0842
GGUCACGUCUCAAUCAACUCAUUCUCCAGGGAAAGCCCUGGUAUUCUCAACAGCUCGCAGUCAAG | 0.053
GGUCACGUCUCAAUCAACUCAAGGUCAGGAGUUUCCUCCUGUAUAUUCAACAGCUCGCAGUCAAG | 0.0679
GGUCACGUCUCAAUCAACUCUCAAGAGGGGGGGAAAACCCCUUUACCCUCACACUCAACAGCUCGCAGUCAAG | 0.134
GGUCACGUCUCAAUCAACUCAAUUUCAGGAGUUUACUCCUGCUUUCUCAACAGCUCGCAGUCAAG | 0.0184
GGUCACGUCUCAAUCAACUCUAUCUCCAGGGAAACCCCUGGUAUAUUCAACAGCUCGCAGUCAAG | 0.148
GGUCACGUCUCAAUCAACUCAUCUUCAGGAGUUUUCUCCUGCUUUCUCAACAGCUCGCAGUCAAG | 0.188
GGUCACGUCUCAAUCAACUCAUCGUCCAGGGAAAACCCUGGUUUAUUCAACAGCUCGCAGUCAAG | -0.206
GGUCACGUCUCAAUCAACUCCCCAGAGGGGGGGAAAACCCCUUUACCCUCGAUAUCAACAGCUCGCAGUCAAG | 0.0183
GGUCACGUCUCAAUCAACUCAACAGAGGGGGGGAAAACCCCUUUACCCUCACUUUCAACAGCUCGCAGUCAAG | -0.312
GGUCACGUCUCAAUCAACUCAUUUCCAGGAGUUUACUCCUGUAUUUUCAACAGCUCGCAGUCAAG | -0.05

Sequence | binding signal (log2 fold change)
GGUCACGUCUCAAUCAACUCUUUAGAGGGGGGGAAAACCCCUUUGCCCUCCAUGUCAACAGCUCGCAGUCAAG | -0.0101
GGUCACGUCUCAAUCAACUCUAUCUCCAGGGAAAUCCCUGGCAAACUCAACAGCUCGCAGUCAAG | 0.0496
GGUCACGUCUCAAUCAACUCGUUUUCAGGAGUUUUCUCCUGCAAUUUCAACAGCUCGCAGUCAAG | -0.0626
GGUCACGUCUCAAUCAACUCAACUCCAGGAGUUUGCUCCUGCUUUCUCAACAGCUCGCAGUCAAG | 0.0357
GGUCACGUCUCAAUCAACUCUAUCUCCAGGGAAAGCCCUGGUUUACUCAACAGCUCGCAGUCAAG | -0.0967
GGUCACGUCUCAAUCAACUCUUCCUCCAGGGAAAUCCCUGGUUAAUUCAACAGCUCGCAGUCAAG | 0.00749
GGUCACGUCUCAAUCAACUCAAUCUCCAGGGAAAUCCCUGGUUUUUUCAACAGCUCGCAGUCAAG | -0.0897
GGUCACGUCUCAAUCAACUCCUACGAGGGGGGGAAAACCCCUUUACCCUCAACAUCAACAGCUCGCAGUCAAG | 0.0891
GGUCACGUCUCAAUCAACUCAUCUCCCAGGGAAAUCCCUGGCAUACUCAACAGCUCGCAGUCAAG | -0.123
GGUCACGUCUCAAUCAACUCUUUUUCCAGGGAAAACCCUGGUAUACUCAACAGCUCGCAGUCAAG | -0.194
GGUCACGUCUCAAUCAACUCUAUGUCAGGAGUUUUCUCCUGCUUAUUCAACAGCUCGCAGUCAAG | -0.0612
GGUCACGUCUCAAUCAACUCAUCUCCAGGAGUUUCCUCCUGCAUUCUCAACAGCUCGCAGUCAAG | 0.086
GGUCACGUCUCAAUCAACUCAACUUCAGGAGUUUGCUCCUGUUUUUUCAACAGCUCGCAGUCAAG | 0.066
GGUCACGUCUCAAUCAACUCAAUUCCAGGAGUUUCCUCCUGCAUAUUCAACAGCUCGCAGUCAAG | 0.179
GGUCACGUCUCAAUCAACUCAUCGGCCAGGGAAAUCCCUGGGAAAUUCAACAGCUCGCAGUCAAG | -0.153
GGUCACGUCUCAAUCAACUCAUUUGCAGGAGUUUCCUCCUGGUAUCUCAACAGCUCGCAGUCAAG | -0.05
GGUCACGUCUCAAUCAACUCAUCCUCCAGGGAAAGCCCUGGUAUACUCAACAGCUCGCAGUCAAG | -0.184
GGUCACGUCUCAAUCAACUCUAUCCCCAGGGAAAGCCCUGGCAAAUUCAACAGCUCGCAGUCAAG | 0.0174
GGUCACGUCUCAAUCAACUCUUUUCCCAGGGAAAUCCCUGGUUAUCUCAACAGCUCGCAGUCAAG | -0.000882
GGUCACGUCUCAAUCAACUCUUUUCCAGGAGUUUUCUCCUGCUUACUCAACAGCUCGCAGUCAAG | 0.0404
GGUCACGUCUCAAUCAACUCAAUCUCAGGAGUUUGCUCCUGUAAAUUCAACAGCUCGCAGUCAAG | 0.105
GGUCACGUCUCAAUCAACUCUUCUUCAGGAGUUUUCUCCUGUUAUCUCAACAGCUCGCAGUCAAG | 0.00981
GGUCACGUCUCAAUCAACUCAAUCUCCAGGGAAAGCCCUGGCUUAUUCAACAGCUCGCAGUCAAG | -0.0396
GGUCACGUCUCAAUCAACUCAACUUCAGGAGUUUACUCCUGUUUUCUCAACAGCUCGCAGUCAAG | -0.075
GGUCACGUCUCAAUCAACUCAUUAGAGGGGGGGAAAACCCCUUUGCCCUCACUUUCAACAGCUCGCAGUCAAG | -0.739

Sequence | binding signal (log2 fold change)
GGUCACGUCUCAAUCAACUCUUCCUCCAGGGAAAUCCCUGGCUAUUUCAACAGCUCGCAGUCAAG | -0.174
GGUCACGUCUCAAUCAACUCUUCUUCCAGGGAAAGCCCUGGUUUUUUCAACAGCUCGCAGUCAAG | -0.149
GGUCACGUCUCAAUCAACUCAUACGAGGGGGGGAAAACCCCUUUACCCUCACAUUCAACAGCUCGCAGUCAAG | -0.606
GGUCACGUCUCAAUCAACUCCAUAGAGGGGGGGAAAACCCCUUUGCCCUCGAAUUCAACAGCUCGCAGUCAAG | -0.668
GGUCACGUCUCAAUCAACUCUAUCGAGGGGGGGAAAACCCCUUUACCCUCUCCAUCAACAGCUCGCAGUCAAG | -0.0608
GGUCACGUCUCAAUCAACUCUAUUCCAGGAGUUUUCUCCUGUUAUCUCAACAGCUCGCAGUCAAG | 0.13
GGUCACGUCUCAAUCAACUCAAUUCCAGGAGUUUACUCCUGCUAUCUCAACAGCUCGCAGUCAAG | 0.009
GGUCACGUCUCAAUCAACUCUUCAGAGGGGGGGAAAACCCCUUUGCCCUCACUAUCAACAGCUCGCAGUCAAG | -0.266
GGUCACGUCUCAAUCAACUCUUCGCCCAGGGAAACCCCUGGUAAUCUCAACAGCUCGCAGUCAAG | 0.384
GGUCACGUCUCAAUCAACUCACAAGAGGGGGGGAAAACCCCUUUACCCUCAUUCUCAACAGCUCGCAGUCAAG | -0.322
GGUCACGUCUCAAUCAACUCCAUCGAGGGGGGGAAAACCCCUUUGCCCUCACAAUCAACAGCUCGCAGUCAAG | 0.0821
GGUCACGUCUCAAUCAACUCAUCCUCCAGGGAAAUCCCUGGCUUUCUCAACAGCUCGCAGUCAAG | -0.0478
GGUCACGUCUCAAUCAACUCUAUCCCCAGGGAAAACCCUGGUUAUCUCAACAGCUCGCAGUCAAG | 0.0418
GGUCACGUCUCAAUCAACUCUAUUUCCAGGGAAAACCCUGGCUUAUUCAACAGCUCGCAGUCAAG | -0.128
GGUCACGUCUCAAUCAACUCAACUUCCAGGGAAACCCCUGGCUUAUUCAACAGCUCGCAGUCAAG | -0.237
GGUCACGUCUCAAUCAACUCAACUUCCAGGGAAAACCCUGGUUAUCUCAACAGCUCGCAGUCAAG | 0.208
GGUCACGUCUCAAUCAACUCAACUUCAGGAGUUUACUCCUGUAUACUCAACAGCUCGCAGUCAAG | 0.0316
GGUCACGUCUCAAUCAACUCAUUUUCAGGAGUUUUCUCCUGCUUUUUCAACAGCUCGCAGUCAAG | -0.11
GGUCACGUCUCAAUCAACUCCCUAGAGGGGGGGAAAACCCCUUUACCCUCAAUGUCAACAGCUCGCAGUCAAG | 0.558
GGUCACGUCUCAAUCAACUCUUACGAGGGGGGGAAAACCCCUUUACCCUCAUUAUCAACAGCUCGCAGUCAAG | -0.513
GGUCACGUCUCAAUCAACUCAUCUCCCAGGGAAACCCCUGGUAAUUUCAACAGCUCGCAGUCAAG | -0.157
GGUCACGUCUCAAUCAACUCUUCCCCCAGGGAAAACCCUGGCAUAUUCAACAGCUCGCAGUCAAG | -0.128
GGUCACGUCUCAAUCAACUCUUAAGAGGGGGGGAAAACCCCUUUACCCUCCACGUCAACAGCUCGCAGUCAAG | -0.194
GGUCACGUCUCAAUCAACUCUUUUCCCAGGGAAACCCCUGGCUUUUUCAACAGCUCGCAGUCAAG | -0.104
